Source: the supplement of paper PMC3334620
Over roughly 33,000 sequences, “E-score (-0.5 to 0.5)” has its median near -0.035; the highest 2% begin near 0.35. This is one part of the list.

target: T1, Pdr3 (UniProt P33200); assay: PBM E-score (8-mer binding enrichment) (E-score (-0.5 to 0.5)); higher = stronger / more preferred TF binding; most listed sequences are background and not binding sites; conditions: protein concentration: 200 nM; construct: GST-full length
T1 sequence: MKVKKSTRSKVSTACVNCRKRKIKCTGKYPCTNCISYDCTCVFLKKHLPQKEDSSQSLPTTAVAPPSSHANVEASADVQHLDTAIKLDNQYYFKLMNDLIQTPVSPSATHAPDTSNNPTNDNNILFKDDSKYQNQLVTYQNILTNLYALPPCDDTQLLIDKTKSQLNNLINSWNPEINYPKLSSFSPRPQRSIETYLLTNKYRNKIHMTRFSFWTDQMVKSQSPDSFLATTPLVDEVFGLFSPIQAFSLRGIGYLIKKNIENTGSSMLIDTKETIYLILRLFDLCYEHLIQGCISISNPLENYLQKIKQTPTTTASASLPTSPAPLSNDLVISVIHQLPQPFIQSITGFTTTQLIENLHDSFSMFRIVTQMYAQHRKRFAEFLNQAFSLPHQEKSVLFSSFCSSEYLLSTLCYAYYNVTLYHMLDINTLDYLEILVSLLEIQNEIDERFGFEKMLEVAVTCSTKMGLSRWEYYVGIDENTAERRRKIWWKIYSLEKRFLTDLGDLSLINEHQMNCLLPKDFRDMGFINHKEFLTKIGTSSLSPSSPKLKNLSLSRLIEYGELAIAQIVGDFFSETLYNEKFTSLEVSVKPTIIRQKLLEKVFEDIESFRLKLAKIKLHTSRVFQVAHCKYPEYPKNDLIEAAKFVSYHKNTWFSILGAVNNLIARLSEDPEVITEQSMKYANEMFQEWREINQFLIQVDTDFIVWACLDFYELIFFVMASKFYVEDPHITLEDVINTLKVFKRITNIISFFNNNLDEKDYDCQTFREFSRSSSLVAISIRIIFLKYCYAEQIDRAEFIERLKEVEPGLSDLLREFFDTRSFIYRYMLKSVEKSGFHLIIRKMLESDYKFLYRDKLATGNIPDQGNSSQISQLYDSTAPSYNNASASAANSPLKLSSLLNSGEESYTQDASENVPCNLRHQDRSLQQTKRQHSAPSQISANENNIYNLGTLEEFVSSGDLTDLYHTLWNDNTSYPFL
In short: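 Full-length yeast transcription factors or their DNA-binding domains, GST-tagged and expressed with PURExpress, were applied at about 100-200 nM to universal all-10-mer Agilent arrays. These arrays had been made double-stranded by primer extension on fresh or once-stripped slides. Detection used fluorescent anti-GST, normalisation used masliner, and E-scores for ungapped eight-base words pooled with reverse complements came from the Universal PBM Analysis Suite.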

Sequence | PBM E-score
CGAGATAA | 0.176
ATGGAATG | 0.184
ACTGTATC | -0.197
AACGCACC | -0.0303
AAAAGGGG | -0.0881
GGAAATAA | 0.233
ATCTTCGC | 0.0969
ATACAGTC | -0.224
TATCCAGA | 0.022
CCGGGCCG | 0.399
ACACATGA | -0.236
ATAGCGTG | -0.0691
ATTGATTC | 0.23
TCAACTGA | -0.107
AAATGGTG | -0.0896
AGGATAGC | 0.0992
ACCGTCTG | -0.195
AACAGAAC | -0.0207
CACCTTAC | -0.118
AGGCTCTG | -0.333
TAGAAGGA | -0.216
GGATGATA | 0.0683
AACTCTAA | 0.00328
CTGGCCAG | -0.195
CTCTAAAC | -0.201

Sequence | PBM E-score
GCGAGCAA | -0.058
CATTAGCC | -0.138
AGCCGACC | -0.12
CCACTGAA | 0.133
CGTTGAAA | -0.0753
ACGAGATG | -0.126
GCGTAAAA | 0.00747
ATGCGATG | -0.078
GCTCTCTA | -0.321
TCACCAAA | -0.121
CTTTTAGC | -0.245
AGATCCGA | 0.169
ATTTCCGC | 0.413
CGAGAGCA | 0.0831
AATTTCCC | 0.0432
AGACCGGA | 0.254
ATCCCCTA | -0.0419
AACCGGTC | 0.176
CTTGAAAA | -0.0857
CAGGCTAA | -0.214
CGAAAACA | 0.0267
GTTACCTA | -0.153
CGCAAATC | 0.0269
AAGCCTGT | 0.028
CGACTGTC | -0.226

Sequence | PBM E-score
CGCCGCAC | 0.0924
CTGCCACA | -0.0927
CGCGCCCG | 0.23
ACGCTCAA | -0.0968
AGCACAAG | -0.186
AGTAAACT | 0.121
AAATAGGT | -0.15
GCGGACGA | 0.333
ACCTGAAG | -0.101
AGCGCGTA | 0.00082
TGCATACA | -0.033
CGGTACTA | 0.152
GTAGTCTA | -0.11
CTACTAAG | -0.0243
ATCCCGAA | 0.308
TAAATTGA | -0.0504
AATGTTCT | -0.287
AGAGCATG | -0.107
AATCGTTG | 0.0459
AGAGGGAA | -0.226
CCGCAACC | 0.232
AAGTCATG | -0.0527
CACTGAGA | -0.209
AAATGAGA | -0.183
ACACATTC | -0.00297

Sequence | PBM E-score
CGGCAGAG | 0.0006
CGTGTCAG | 0.145
AAATTCCT | 0.0116
ATAGTTCG | 0.193
CTGTGAAA | 0.0103
CAGGCTAG | -0.315
ACGCACGA | -0.15
CATTGTAG | 0.00167
CTTGTTCC | 0.207
GAACACTA | -0.0215
ATTGTTTA | -0.162
AGGTATTG | -0.103
ACGACCTC | 0.183
CCTCCAGC | -0.261
ATATACAT | -0.0165
GAAACTAC | 0.0827
CGCTACGA | 0.0564
CGTGCCCC | -0.232
CACAGGAG | -0.091
CTCGAACC | -0.0403
CTGTGTGC | -0.141
TAACAGTA | -0.171
ATAGTAAC | -0.101
GGACGCAA | 0.113
ATGCGTCC | 0.0189

Sequence | PBM E-score
ACAGTCAA | -0.022
ACGTTACT | -0.191
CATTGTCG | -0.0495
AACACAAA | -0.078
TCAAAGCA | -0.0887
GCGAGCTA | -0.0689
AGAGTAAA | -0.181
GCTTGCTA | -0.144
AGTTGAGA | -0.166
GGCGCCAA | 0.108
CGTCAGTC | 0.0108
AAGTTTCA | 0.0173
CGCACACA | -0.0409
GGCGGCCA | -0.0702
TATACTAA | -0.101
ATATTCGG | 0.106
ATTTACGC | -0.033
AGGCCCAG | -0.196
GATAGCCA | 0.035
CATGCTAC | -0.0835
ACTATATA | 0.0653
CCCGACCC | 0.126
ACCGAGTC | -0.168
ACCGACAG | 0.0513
CTGATAAA | 0.0563

Sequence | PBM E-score
GCACAGCA | -0.107
AACAACGT | -0.175
GCACAGAA | -0.0107
AGACGATC | -0.267
ACTGGGAC | -0.0292
CCGGAGTA | 0.367
CATACCAA | -0.00359
CTGCGTTC | 0.125
ACGTGCCA | -0.154
ATCGTCTG | -0.0834
GGACCGTA | -0.136
CCGAGCTC | 0.217
AGCAACAT | -0.117
CCAGTGCA | -0.22
AGAAGATC | -0.00552
CCCCGGGA | 0.417
ACTACCCA | -0.328
CCTGCGGC | -0.0139
AAACCACC | -0.0783
AAAGAATG | -0.0818
GACCTGGA | -0.219
AACCTCCT | -0.183
GCCCCACC | 0.202
AGTGGCCC | 0.137
CAATCCGA | 0.271

Sequence | PBM E-score
AGCCTAAC | -0.162
AGGTCATA | -0.118
GGACTAAC | -0.0477
CAGTCGAG | -0.147
ACATAAAT | -0.0382
CCTCGTCC | -0.116
CCTCTGAA | -0.00096
GGTATGAC | -0.0226
ATATGTTC | 0.223
CCGTGCTC | 0.243
GGCCCAGA | -0.149
AAGCCGAT | 0.188
TTACAAAA | -0.0386
ATAATCAC | 0.035
ACCGGCGC | 0.228
ATGTTGTG | -0.0732
CATTCTTA | -0.00508
AGGAACTG | -0.208
ACCGCCAA | -0.0762
TATTCCAA | -0.091
TCGACCAA | -0.16
GTGGCGTA | -0.0399
